From the supplement of paper PMC3334620
The full ranking holds about 33,000 sequences; the median of “E-score (-0.5 to 0.5)” is about -0.056, and the highest 2% start at about 0.38. Some of the results follow.

Target: Stb4 (UniProt P50104)
Assay: PBM E-score (8-mer binding enrichment) (E-score (-0.5 to 0.5)); higher = stronger / more preferred TF binding; most listed sequences are background and not binding sites
Conditions: protein concentration: 200 nM; construct: GST-DNA-binding domain
How it was run: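 The E-score, a modified Wilcoxon-Mann-Whitney statistic, was computed by the Universal PBM Analysis Suite for every ungapped eight-base word pooled with its reverse complement. Scans behind it were normalised with masliner after bound GST-tagged yeast transcription factors were detected with fluorescent anti-GST. The proteins, at about 100-200 nM, had been applied to universal all-10-mer Agilent arrays made double-stranded by primer extension.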

| Sequence | PBM E-score |
| --- | --- |
| CACAGCGA | -0.198 |
| CCGTTACC | 0.161 |
| ATACGCTA | 0.0599 |
| AGACGGAG | 0.0481 |
| GATATGAA | 0.103 |
| ATTATGTA | 0.0615 |
| ATCTTAGA | 0.0606 |
| TGTCATAA | -0.24 |
| GCGACTCC | -0.0979 |
| CTCTGCAA | -0.0996 |
| ATTCCTAA | -0.0499 |
| AAACGAAG | -0.191 |
| CGACGTTC | -0.025 |
| GATCAAAA | -0.0588 |
| GTGCGCCA | -0.157 |
| TGGCTAAA | 0.0298 |
| GTAAAAAA | 0.16 |
| AACTCTTG | -0.264 |
| AACACGGC | 0.121 |
| AGTCTGGG | -0.0778 |
| ATAAGGCC | -0.00625 |
| AGTCGATA | -0.102 |

| Sequence | PBM E-score |
| --- | --- |
| AGATGGGA | -0.151 |
| AGCAATGC | -0.0495 |
| AGACAGAT | -0.0832 |
| AGTCGTTA | -0.218 |
| CGTCCCCC | -0.0575 |
| ACGGTGTA | 0.0257 |
| ATAATCGG | 0.348 |
| GCGGAAAC | 0.294 |
| ATACCATC | 0.119 |
| CCTTGTTA | -0.232 |
| ATCTGATG | -0.192 |
| ACTCCTCG | 0.0246 |
| ACAGTGCG | -0.0137 |
| GAGCGATA | -0.0934 |
| GCGCACAA | -0.0676 |
| AAGAATAT | 0.0558 |
| CTAGTTGC | -0.112 |
| ACGAGCGA | -0.402 |
| GACTACAA | -0.216 |
| GAATGGCA | -0.0284 |
| CAGGAGGA | -0.256 |
| CGCAGATA | -0.0801 |

| Sequence | PBM E-score |
| --- | --- |
| ATCTCGAC | -0.239 |
| GTATCTAA | -0.0722 |
| ACAAAAAC | -0.0851 |
| GAACATAC | 0.168 |
| GGCAACAC | 0.0451 |
| AGGCAGTA | -0.245 |
| TAACGAAA | 0.00974 |
| TCCGTACA | 0.257 |
| GGTACCGA | 0.361 |
| CACAGCTG | -0.197 |
| ATTGTACC | 0.139 |
| CTCACGGC | 0.0662 |
| TACGCCGA | 0.26 |
| GGCACTTA | 0.0496 |
| AAATAGGG | 0.0217 |
| AGTCTTAG | -0.124 |
| CAGTTAGG | -0.281 |
| GAAAAACC | 0.266 |
| AAATTTAC | -0.0114 |
| CTCGGTGC | 0.244 |
| CGCACTGC | -0.183 |
| AAGCGGGG | -0.173 |

| Sequence | PBM E-score |
| --- | --- |
| CGTTTAAG | -0.0291 |
| ACGCAGGG | -0.185 |
| AACCATCG | 0.106 |
| AGCTCAGC | -0.375 |
| AACTGTAC | -0.172 |
| GTGAATCA | -0.157 |
| TCAATGCA | -0.185 |
| CTGATGTA | -0.088 |
| AGCGAATA | -0.196 |
| AAATGTGT | -0.121 |
| AGACGTCT | -0.218 |
| ACCTTGAG | -0.0731 |
| ACCAGGGT | -0.19 |
| CAGAATGG | -0.0738 |
| GGGTAAAC | 0.205 |
| GAACAGTA | 0.133 |
| GTTATACA | -0.0637 |
| CCGGCCCC | 0.219 |
| ATCATGCG | -0.0417 |
| CGCAAGGC | 0.00538 |
